This is an account of results in the antibiotic and cytotoxicity screens of Wong et al. (2023).

The other results are listed elsewhere or left out.

Assay [1] deals with HSkMC (human skeletal muscle cells). The experiment in a line: cytotoxicity call (relative viability < 0.9). As to conditions: 10 µM.
The subject of assay [2] is HepG2. The experiment in a line: cytotoxicity call (relative viability < 0.9). As to conditions: 10 µM.
The test system of assay [3] is S. aureus RN4220. The experiment in a line: growth inhibition call (relative growth <= 0.2). As to conditions: 50 µM.

For the compound `O[C@@H]1[C@@H](O)[C@H]2OC[C@@H](O2)[C@H]1O`, the cytotoxicity call in assay [1] and in assay [2] was “inactive” in each case. The growth inhibition call in assay [3] is “inactive”.

Take `C[C@@H]1CCCCO[C@@H](CN(C)C(=O)CCCN(C)C)[C@@H](C)CN([C@H](C)CO)C(=O)c2cc(N(C)C)ccc2O1`: the cytotoxicity call in assay [1] and in assay [2] was “inactive” each time. The growth inhibition call in assay [3] was “inactive”.

Regarding `COc1ccc(S(=O)(=O)N(C)C[C@H]2Oc3c(NS(=O)(=O)c4ccccc4)cccc3C(=O)N([C@H](C)CO)C[C@@H]2C)cc1`, the cytotoxicity call in assay [1] and in assay [2] was “inactive” each time. Also, the growth inhibition call in assay [3] is “inactive”.

As for `C[C@@H]1CN([C@H](C)CO)C(=O)Cc2cc(NC(=O)Nc3ccc4c(c3)OCO4)ccc2O[C@H]1CN(C)Cc1ccc(-c2ccccc2)cc1`, the cytotoxicity call in assay [1] and in assay [2] was “inactive” in each case. Also, the growth inhibition call in assay [3] was “inactive”.

Turning to `Cc1noc(C)c1S(=O)(=O)N(C)C[C@H]1Oc2ccc(NS(=O)(=O)c3ccc(F)cc3)cc2CC(=O)N([C@H](C)CO)C[C@@H]1C`, the cytotoxicity call in assay [1] and in assay [2] was “inactive” each time. The growth inhibition call in assay [3] is “inactive”.

With `C[C@H](CO)N1C[C@H](C)[C@H](CN(C)Cc2ccc(C(F)(F)F)cc2)OCCCC[C@H](C)Oc2ccc(NS(=O)(=O)c3cccs3)cc2C1=O`, the cytotoxicity call in assay [1] is “inactive”. The cytotoxicity call in assay [2] is “active”. Moreover, the growth inhibition call in assay [3] is “inactive”.

For `C[C@@H]1CN([C@H](C)CO)S(=O)(=O)c2ccc(C#CCN(C)C)cc2O[C@H]1CN(C)Cc1cccnc1`, the cytotoxicity call in assay [1] and in assay [2] was “inactive” each time. For the same compound, the growth inhibition call in assay [3] is “inactive”.

Regarding `Cc1noc(C)c1S(=O)(=O)Nc1ccc2c(c1)C(=O)N([C@@H](C)CO)C[C@H](C)[C@@H](CN(C)Cc1ccc3c(c1)OCO3)O2`, the cytotoxicity call in assay [1] and in assay [2] was “inactive” in each case. In addition, the growth inhibition call in assay [3] was “inactive”.

`CC(C)NC(=O)N(C)C[C@@H]1OCc2cnnn2CCCC(=O)N([C@@H](C)CO)C[C@H]1C`: the cytotoxicity call in assay [1] and in assay [2] was “inactive” throughout. Also, the growth inhibition call in assay [3] was “inactive”.

On to `C[C@@H]1CN([C@H](C)CO)C(=O)CCCn2cc(nn2)CO[C@@H]1CN(C)C(=O)c1ccc(N2CCN(C)CC2)cc1`, for which the cytotoxicity call in assay [1] and in assay [2] was “inactive” throughout. In assay [3], the growth inhibition call is “inactive”.

As for `C[C@@H]1CN([C@@H](C)CO)C(=O)c2cc(NS(=O)(=O)c3ccccc3)ccc2O[C@@H](C)CCCCO[C@@H]1CN(C)C(=O)Nc1cccc2ccccc12`, the cytotoxicity call in assay [1] and in assay [2] was “inactive” throughout. Moreover, in assay [3], the growth inhibition call was “inactive”.

For the compound `O=C1CN(S(=O)(=O)Cc2ccccc2)C[C@@H]2[C@@H](c3ccc(C#Cc4cccc(F)c4)cc3)[C@@H](CO)N12`, the cytotoxicity call in assay [1] and in assay [2] was “active” in each case. For the same compound, the growth inhibition call in assay [3] was “inactive”.

As for `C[C@H](CO)N1C[C@H](C)[C@H](CN(C)Cc2ccc(Cl)c(Cl)c2)Oc2ccc(NC(=O)NC3CCCCC3)cc2C1=O`, the cytotoxicity call in assay [1] and in assay [2] was “inactive” in each case. Further, the growth inhibition call in assay [3] is “inactive”.

Regarding `C[C@@H]1CCCCO[C@H](CN(C)S(C)(=O)=O)[C@H](C)CN([C@@H](C)CO)C(=O)c2cc(NC(=O)CCCN(C)C)ccc2O1`, the cytotoxicity call in assay [1] and in assay [2] was “inactive” in each case. Also, the growth inhibition call in assay [3] was “inactive”.

Regarding `C[C@@H]1CN([C@H](C)CO)C(=O)CCCn2nncc2CO[C@@H]1CN(C)C(=O)Nc1ccccc1C(F)(F)F`, the cytotoxicity call in assay [1] and in assay [2] was “inactive” throughout. In addition, the growth inhibition call in assay [3] is “inactive”.

In the case of `C[C@H]1CN([C@@H](C)CO)C(=O)c2cc(NC(=O)C3CC3)ccc2O[C@@H]1CN(C)S(=O)(=O)c1ccc(Cl)cc1`, the cytotoxicity call in assay [1] and in assay [2] was “inactive” each time. Moreover, the growth inhibition call in assay [3] is “inactive”.

For the compound `CCc1ccc(CNC2CC2)cc1`, the cytotoxicity call in assay [1] and in assay [2] was “inactive” each time. Also, the growth inhibition call in assay [3] is “inactive”.

For `C[C@@H]1CN([C@H](C)CO)C(=O)c2cc(NC(=O)Cc3cn(C)c4ccccc34)ccc2O[C@H]1CN(C)S(C)(=O)=O`, the cytotoxicity call in assay [1] and in assay [2] was “inactive” each time. Moreover, the growth inhibition call in assay [3] is “inactive”.

For `COc1ccc(CN(C)C[C@H]2OCCCC[C@H](C)Oc3ccc(NC(=O)NC4CCCCC4)cc3C(=O)N([C@H](C)CO)C[C@H]2C)cc1`, the cytotoxicity call in assay [1] and in assay [2] was “inactive” in each case. Besides, in assay [3], the growth inhibition call was “inactive”.

Turning to `CC(=O)O[C@H]1[C@H](Oc2cc(O)cc(O)c2C(=O)c2cccc(O)c2)O[C@H](CO)[C@@H](OC(=O)c2ccccc2)[C@@H]1O`, the cytotoxicity call in assay [1] and in assay [2] was “inactive” in each case. In addition, in assay [3], the growth inhibition call was “inactive”.

For the compound `C[C@H]1CN([C@@H](C)CO)C(=O)Cc2cc(NC(=O)c3ccncc3)ccc2O[C@H]1CN(C)Cc1ccc(C(=O)O)cc1`, the cytotoxicity call in assay [1] and in assay [2] was “inactive” each time. In addition, the growth inhibition call in assay [3] was “inactive”.

As to `C[C@@H]1CCCCO[C@H](CN(C)Cc2ccc(C(F)(F)F)cc2)[C@H](C)CN([C@H](C)CO)C(=O)c2cc(NS(=O)(=O)c3cn(C)cn3)ccc2O1`, the cytotoxicity call in assay [1] and in assay [2] was “inactive” throughout. Moreover, in assay [3], the growth inhibition call is “inactive”.

Take `C[C@H](CO)N1C[C@H](C)[C@H](CN(C)C(=O)c2cccnc2)Oc2cc(-c3cccc(C#N)c3)ccc2S1(=O)=O`: the cytotoxicity call in assay [1] and in assay [2] was “inactive” each time. Further, in assay [3], the growth inhibition call is “inactive”.

`C[C@H]1CN([C@@H](C)CO)C(=O)c2cccc(NC(=O)Nc3ccc4c(c3)OCO4)c2O[C@@H]1CN(C)Cc1ccc(C(F)(F)F)cc1`: the cytotoxicity call in assay [1] and in assay [2] was “inactive” throughout. Further, the growth inhibition call in assay [3] is “inactive”.

As to `C[C@@H]1CCCCO[C@H](CN(C)Cc2ccccc2)[C@@H](C)CN([C@@H](C)CO)C(=O)c2cc(NC(=O)c3ccncc3)ccc2O1`, the cytotoxicity call in assay [1] and in assay [2] was “inactive” each time. Also, in assay [3], the growth inhibition call was “inactive”.

For `C[C@@H]1CN([C@@H](C)CO)C(=O)c2cccc(NC(=O)C3CC3)c2O[C@@H]1CN(C)Cc1ccc(Oc2ccccc2)cc1`, the cytotoxicity call in assay [1] and in assay [2] was “inactive” each time. In addition, in assay [3], the growth inhibition call was “inactive”.

Regarding `Cc1noc(C)c1NC(=O)Nc1ccc2c(c1)C(=O)N([C@@H](C)CO)C[C@H](C)[C@@H](CN(C)C(=O)Nc1c(C)noc1C)OCCCC[C@H](C)O2`, the cytotoxicity call in assay [1] and in assay [2] was “inactive” each time. Also, the growth inhibition call in assay [3] is “inactive”.
